# Test results reported in PMC4336329 (PLoS ONE, 2015).
# Among all 310,000 compounds or so, about 14,000 (4.5%) showed an effect of 50% or more. The effect is printed as a negative number. Some of the results follow.
# Target: human ether-à-go-go-related gene (hERG) potassium channel (human, UniProt Q12809)
# Assay: primary screen, population patch clamp on CHO cells stably expressing hERG
# 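Note: peak tail current of the secondary pulse compared with the same well before compound.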
# Sequence of human ether-à-go-go-related gene (hERG) potassium channel (Q12809 whole entry, looked up): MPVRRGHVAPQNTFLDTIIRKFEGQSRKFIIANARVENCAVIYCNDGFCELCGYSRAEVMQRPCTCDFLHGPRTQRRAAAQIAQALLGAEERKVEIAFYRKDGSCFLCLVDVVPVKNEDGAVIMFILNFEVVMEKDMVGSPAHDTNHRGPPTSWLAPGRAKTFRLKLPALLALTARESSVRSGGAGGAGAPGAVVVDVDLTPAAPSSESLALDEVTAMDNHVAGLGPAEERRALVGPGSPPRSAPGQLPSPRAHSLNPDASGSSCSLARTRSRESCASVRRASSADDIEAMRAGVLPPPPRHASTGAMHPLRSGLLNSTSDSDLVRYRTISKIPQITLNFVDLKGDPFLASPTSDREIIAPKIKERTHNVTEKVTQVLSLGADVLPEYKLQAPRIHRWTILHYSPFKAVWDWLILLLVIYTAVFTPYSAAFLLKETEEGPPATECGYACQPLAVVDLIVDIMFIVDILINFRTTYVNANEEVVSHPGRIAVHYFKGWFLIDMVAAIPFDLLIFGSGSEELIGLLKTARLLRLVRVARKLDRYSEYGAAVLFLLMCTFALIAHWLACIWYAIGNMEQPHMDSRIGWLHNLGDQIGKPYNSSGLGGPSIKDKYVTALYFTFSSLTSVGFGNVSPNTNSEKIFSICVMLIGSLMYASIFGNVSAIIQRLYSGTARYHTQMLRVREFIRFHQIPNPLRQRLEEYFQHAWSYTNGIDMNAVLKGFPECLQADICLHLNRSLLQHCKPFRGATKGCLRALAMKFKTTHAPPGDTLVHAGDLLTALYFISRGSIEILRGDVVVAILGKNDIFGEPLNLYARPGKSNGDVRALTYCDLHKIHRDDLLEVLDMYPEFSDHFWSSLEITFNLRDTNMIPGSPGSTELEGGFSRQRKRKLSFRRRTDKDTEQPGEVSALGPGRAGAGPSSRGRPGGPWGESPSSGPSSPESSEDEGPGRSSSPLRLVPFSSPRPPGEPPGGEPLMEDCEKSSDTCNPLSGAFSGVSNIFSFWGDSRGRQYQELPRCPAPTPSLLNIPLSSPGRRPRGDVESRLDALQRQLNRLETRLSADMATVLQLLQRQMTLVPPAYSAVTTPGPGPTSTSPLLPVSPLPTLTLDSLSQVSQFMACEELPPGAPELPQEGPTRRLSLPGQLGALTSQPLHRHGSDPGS
row,SMILES,"hERG current change (%, negative = inhibition) at 10uM [%]"
1,COc1cc(NC(=O)COc2ccc(-n3ccnc3)cc2)cc(OC)c1,-51.3
2,CCOC(=O)C(=CNc1cc(C(F)(F)F)ccc1N1CCOCC1)C(=O)OCC,-13.2
3,COc1cc(C(=O)N/N=C(\c2ccccc2)c2ccccn2)cc(OC)c1OC,-1.77
4,CC(Oc1ccccc1)C(=O)Nc1cc(Cl)ccc1-n1cncn1 (stereo not drawn),-6.26
5,CC(C)C1=CC(=Nc2ccc(S(N)(=O)=O)cc2)C=C(C(C)C)C1=O.O,-16
6,COc1ccccc1C(CC(=O)O)c1ccc2c(c1)OCO2 (stereo not drawn),8.32
7,Cc1ccc(C(=O)n2nnc3ccccc32)cc1,7.37
8,Cn1c(CNc2nc(-c3ccccc3)cs2)nnc1SCC(=O)N1CCc2ccccc21,0.0993
9,COc1cccc(C(c2sc3nc(C)nn3c2O)N2CCc3ccccc3C2)c1 (stereo not drawn),-25
10,CN1CCN(Cc2nc(Cc3cccc(F)c3)no2)CC1c1ccccc1 (stereo not drawn),-18.2
11,COc1ccc(/C=C2/C(=O)N=C3SCCN32)cc1,-19.7
12,Cc1ccc(C2C3=C(CCCC3=O)Nc3nc(SCC(=O)NCc4ccco4)[nH]c(=O)c32)cc1 (stereo not drawn),-12.4
13,Cc1ccc(OCC(=O)Nc2cc(C(C)(C)C)on2)cc1C,6.23
14,CN(Cc1ccccc1)S(=O)(=O)c1ccc(NS(=O)(=O)Cc2ccccc2)cc1,0.139
15,COc1ccc(-c2csc(NC(C)c3nc4cc(Cl)c(N5CCCCC5)cc4n3CCOCCO)n2)cc1 (stereo not drawn),12.9
16,CCOC(=O)c1sc2nc(C(C)C)c3c(c2c1N)CC(C)(C)OC3,5.05
17,OC(CNCC1CCCO1)COc1ccc(OCC(O)CNCC2CCCO2)cc1 (stereo not drawn),8.24
18,CC(Oc1ccc(Cl)cc1Cl)C(=O)Nc1ccc(O)cc1 (stereo not drawn),-46.7
19,COc1cccc(N2CCN(C(=O)CCS(=O)(=O)c3ccc4c(c3)oc(=O)n4C)CC2)c1,-3.62
20,O=C(NNC(=O)C1CC1)c1ccc(-c2ccccc2)cc1,-0.895
21,Cn1c(=O)c2c(nc(CO)n2C)n(C)c1=O,25.2
22,Cc1cc(Br)ccc1NC(=O)c1sc2ncnc(N3CCN(c4ccccn4)CC3)c2c1C,-28

row,SMILES,"hERG current change (%, negative = inhibition) at 10uM [%]"
1,O=c1c2c(ncn1CCO)nc1n2CCC1,9.55
2,c1ccc2c(-n3cccn3)cccc2c1,-4.01
3,c1ccc(-c2noc(CSc3nc4ccccc4o3)n2)cc1,0.774
4,O=C(NNC(=O)C1CCN(S(=O)(=O)c2ccc(Cl)cc2)CC1)c1ccc(S(=O)(=O)N2CCCCC2)cc1,0.37
5,C=CCc1c(C)nc2cc(-c3ccccc3)[nH]n2c1=O,5.05
6,COc1cccc(OCC(=O)NNC(=O)c2cnccn2)c1,17.2
7,CC(=O)c1ccc(OCc2cc(C(=O)N3CCN(C4CCCC4)C(=O)C3)no2)cc1,1.94
8,Cc1ccc(Cn2c(C)c3cnn(CC(=O)NCc4ccccn4)c(=O)c3c2C)cc1,-26.5
9,NC(=O)C(=O)NN=C1C2CC3CC(C2)CC1C3,12.8
10,COc1cccc(C(=O)Nc2ccc(NC(=O)C3CCCCC3C(=O)O)cc2)c1 (stereo not drawn),9.47
11,COc1ccc(CNS(=O)(=O)NCc2ccc(OC)c(OC)c2)cc1OC,-1.36
12,CCc1ccc(NCc2ccc(OC)c(Cn3ccnc3)c2)cc1,-10.5
13,COc1ccccc1Nc1ncnc2c1cnn2-c1cccc(C)c1,6.1
14,COc1cc(Cl)ccc1OCc1cc(C(=O)NCC(C)c2ccccc2)no1 (stereo not drawn),5.93
15,Cc1ccc(C)c(S(=O)(=O)N2CCN(C(=O)Cn3cnc4c3c(=O)n(C)c(=O)n4C)CC2)c1,-23.5
16,NC(=O)CN1CCN(c2nc(-c3ccc(F)cc3)cs2)CC1,-19.9
17,O=[N+]([O-])c1cc([As](=O)(O)O)ccc1O,19.8
18,CCOc1ccc(NC(=O)CC2C(=O)N(c3ccccc3)C(=O)N2Cc2ccccn2)cc1 (stereo not drawn),-27.5
19,CCOC(=O)N1CCN(C(=O)CN(c2ccc(C)cc2)S(=O)(=O)c2c(C)noc2C)CC1,-23.8
20,Cc1cc([N+](=O)[O-])ccc1NC(=O)CCC(=O)N1CCCC1,-1.81
21,CC(=O)c1c(COC(=O)c2ccco2)nc2ccccc2[n+]1[O-],-8.88
22,Cc1ccsc1C(=O)OCC(=O)NCCNC(=O)COC(=O)c1sccc1C,15.7

row,SMILES,"hERG current change (%, negative = inhibition) at 10uM [%]"
1,COC(=O)c1sccc1NC(=O)Nc1cccc(C)c1,-20.5
2,COc1ccc(CCNC(=S)Nc2ccccc2)cc1,-3.62
3,CCOc1ccccc1CNC(=O)C1CCN(c2nnc(C)c3c(C)n(-c4ccc(C)cc4)nc23)CC1,-36.4
4,C=C(C)Cn1c(CCCNC(=O)C(C)(C)C)nc2ccccc21,-18
5,CN(C)S(=O)(=O)c1cccc(NC(=O)c2cc([N+](=O)[O-])ccc2N2CCCCC2)c1,-53
6,CC(C)(C)NNC(=S)Nc1cccc(C(F)(F)F)c1,12
7,CCCn1c(SCC(=O)NCc2ccc(F)cc2)n[nH]c1=O,10
8,COc1ccc(CC(=O)NNC(=O)c2cc(C)oc2C)cc1OC,-0.228
9,O=C(COc1ncnc2sccc12)Nc1cccc(S(=O)(=O)N2CCCC2)c1,-11.2
10,COc1ccc(NS(=O)(=O)c2cccc(C(=O)N3CCCC(C)C3)c2)cc1 (stereo not drawn),-18.7
11,O=S(=O)(c1ccccc1)N1CCC(O)(CN2CCN(c3ccccc3)CC2)CC1,12.2
12,Cc1nn(C(=O)/C(C#N)=C/N(C)C)c(C)c1C,41.7
13,CCNc1nnc(CSc2nc3ccccc3s2)s1,-20.4
14,Cc1ccc(OCC(=O)Nc2ccncc2)c(C)c1,-4.52
15,O=C(N/N=C/c1ccc(OC(=O)c2ccccc2)cc1)c1cccnc1,21.1
16,CCNc1nc(NCC)n2c(SCC(=O)Nc3ccc(C(F)(F)F)cc3[N+](=O)[O-])nnc2n1,0.556
17,O=C(COC(=O)c1cc(Cl)ccc1O)NNC(=O)c1ccc([N+](=O)[O-])cc1,-8.83
18,N#CCCn1nc(-c2ccccc2)cc1Nc1ccccc1NC(=O)c1cccs1,-13
19,CCOC(=O)c1cccc(NC(=O)c2ccccc2C)c1,0.56
20,Fc1ccc(-c2nn(-c3ccccc3)cc2CNCc2ccccc2)cc1,1.75
21,N/C(COc1ccc(Cl)cc1Cl)=N\NS(=O)(=O)c1ccccc1,-12.5
22,Cc1ccc(S(=O)(=O)N2CCCOC2CNC(=O)C(=O)NCc2cccnc2)cc1 (stereo not drawn),13.5

row,SMILES,"hERG current change (%, negative = inhibition) at 10uM [%]"
1,Cn1cc(-c2nnnn2-c2ccc(Cl)cc2)c(=O)c2ccccc21,-69.3
2,O=C1NC(=Nc2ccccc2)S/C1=C\C=C\c1ccco1,4.21
3,O=C(O)CC1S/C(=N\N=C2CCCCCC2)N(c2ccccc2)C1=O (stereo not drawn),9.08
4,COc1ccc(/C=N/Nc2nc3ccccc3c(=O)n2-c2ccccc2)cc1OC,-4.81
5,C(=C\c1ccco1)/C1=NN(c2ccccc2)C(c2ccco2)C1 (stereo not drawn),10.7
6,COc1cc(NC(=O)c2ccccc2-n2cnnn2)cc(OC)c1,5.93
7,CCOC(=O)c1cc(S(=O)(=O)N2CCCC2)cn1C,11
8,Nc1cccc2c1C(=O)N(Cc1cccc(Cl)c1)C2=O,0.677
9,COC(=O)c1cccc(Oc2nc3c(c(=O)n(C)c(=O)n3C)n2Cc2ccc(C)cc2)c1,-9.94
10,COc1ccc(CCC(=O)Nc2ccc(C(=O)c3ccncc3)cc2)cc1,3.21
11,COc1ccc(-c2cc3nc(CCl)[nH]c(=O)c3s2)cc1,18.1
12,COc1ccc(N2C(=O)CC(c3cc(OC)c(OC)c(OC)c3)CC2=O)cc1,12.4
13,COc1ccc(CN2CCN(Cc3ccc(C)cc3)C(CCO)C2)cc1OC (stereo not drawn),-54.3
14,CCOC(=O)c1[nH]c(C)c(C(=O)OCC(=O)NCc2ccc(OC)cc2)c1C,8.13
15,COC(=O)c1ccc(C)c(NC(=S)NCc2ccc(Cl)cc2)c1,5.57
16,O=C(CSc1ccc(-c2ccc(Cl)cc2)nn1)NC1CCCC1,10.2
17,O=C(Nc1ncc([N+](=O)[O-])s1)c1ccccc1Br,8.12
18,O=c1oc2c(CN3CCOCC3)c(O)c(Cl)cc2c2c1CCCC2,6.08
19,CC/C(=N\NC(=O)c1nnn(-c2nonc2N)c1-c1ccc2c(c1)OCO2)c1ccccc1,17.9
20,COc1ccccc1[C@@H]1C(c2cccc(Cl)c2)=NN(c2ccccc2)[C@H]1C(=O)N1CCOC1=O,15.2
21,CNc1ccc(C2(O)C(=O)c3ccccc3C2=O)cc1,-66.1
